Reference: PubChem BioAssay AID624418 (National Center for Advancing Translational Sciences (NCATS), 2012)
About 530 (0.13%) of roughly 410,000 compounds were called active. Inconclusive results, whose numbers are uncertain, are shown with a selection of clear calls. Calls come from the whole dose curve; as a rule, active = well fitted inhibition curve with a large enough effect; inconclusive = small, poorly fitted or top-dose-only effect, or another doubt; inactive = no such curve, though single readings can be large or run the other way. Where the call is inconclusive, the potency comes from a doubtful curve fit.
% is set by controls: 0 for no effect and ±100 for the full control effect; potency is the fitted concentration of half-maximal effect.

Test: qHTS of GLP-1 Receptor Inverse Agonists: Cytotox Screen
Conditions: HEK293 cAMP-luciferase reporter cells, luminescence, 24 h; activity change, negative = inhibition: at 38.3 µM (top of the series) unless noted
Outline: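 Cells in DMEM/10% Nu serum/1% pen-strep, 1536-well format. Pre-incubated 12 h, dosed with 23 nL compound, incubated a further 24 h. Luciferase detection, 12 min at room temp, luminescence.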
For `CC(C)NC(=O)N(C)C[C@H]1Oc2cc(C#Cc3ccc(F)cc3)ccc2S(=O)(=O)N([C@H](C)CO)C[C@H]1C`, the “activity change, negative = inhibition” value was inactive: -16.4%.
For `CCCCCCCCCCCCCCCC[n+]1cccc2ccccc21`, the Potency was inconclusive: 12.6 µM [inhibitor, partial curve].
With `CCOc1ccccc1NC(=O)C1=C(C)Nc2ncnn2C1c1sccc1C` (centres undefined) the “activity change, negative = inhibition” value was inactive: 3.15%.
In the case of `C/C(=N\NC(=S)NCCc1ccccc1)c1ccc(C)cc1`, the Potency is reported as active: 10 µM.
For `CC(C)N1CCc2c(sc(NC(=O)c3ccc(S(=O)(=O)N4CCCCC4C)cc3)c2C(N)=O)C1` (centres undefined), the Potency was inconclusive: 28.2 µM [inhibitor, single point].
In the case of `CCOC(=O)c1cc2sccc2n1CC(=O)N1CCCC1`, the Potency is reported as inconclusive: 28.2 µM [inhibitor, single point].
With `COCCNC(=S)N/N=C(\C)c1ccc(Cl)c(Cl)c1Cl` the Potency was active: 3.55 µM.
For `c1ccc(-c2csc3ncn4nnnc4c23)cc1`, the “activity change, negative = inhibition” value was inactive: -8.01%.
In the case of `COc1cccc(C(=O)Nc2cccc(OC(C)=O)c2)c1`, the Potency is reported as inconclusive: 28.2 µM [inhibitor, single point].
For `CCOc1ccc(N(C)S(=O)(=O)c2ccc(-c3cc(C)no3)s2)cc1`, the Potency was inconclusive: 7.94 µM [inhibitor, partial curve, poor fit].
With `CCOc1ccc(CC(=O)NCCS(=O)(=O)N2CCN(c3ccc(OC)cc3)CC2)cc1` the “activity change, negative = inhibition” value was inactive: 4.84%.
For `CC(=O)Oc1ccc2ccccc2c1C(NC(=O)C(C)C)c1cccc([N+](=O)[O-])c1` (centres undefined), the “activity change, negative = inhibition” value was inactive: -16.6%.
In the case of `CCc1ccc(OCC(=O)N/N=C(\C)c2ccccc2OC(F)F)cc1`, the Potency is reported as inconclusive: 12.6 µM [inhibitor, partial curve, poor fit].
In the case of `Cc1ccc(C(=O)N/N=C\c2cccs2)cn1`, the Potency is reported as inconclusive: 28.2 µM [inhibitor, single point].
For `COc1cc(-c2nnc3n2N=C(c2ccccc2)CS3)cc(OC)c1OC`, the Potency was inconclusive: 0.316 µM [inhibitor, full curve, poor fit].
For `Cc1c(CCC(=O)NCc2ccc(F)cc2)c(=O)oc2cc(O)ccc12`, the “activity change, negative = inhibition” value was inactive: 76.1%.
In the case of `CC(C)(C)NC(=O)C(OC(=O)c1cccs1)c1ccccc1` (centres undefined), the “activity change, negative = inhibition” value is reported as inactive: 0.517%.
In the case of `O=C(CN1CCN(c2ccccn2)CC1)Nc1ccc(Oc2ccccc2)cc1`, the “activity change, negative = inhibition” value is reported as inactive: -4.17%.
With `CCCc1nc(SCC(=O)NNC(=O)c2ccc(OC)cc2)c2ccccc2n1` the Potency was inconclusive: 10 µM [inhibitor, single point].
With `CC(=O)Nc1ncc(Cc2ccc(Cl)cc2Cl)s1` the “activity change, negative = inhibition” value was inactive: -38.2%.
For `COc1ccc(NC(=S)NC(NC(=O)c2cccc(Cl)c2)C(Cl)(Cl)Cl)c([N+](=O)[O-])c1` (centres undefined), the “activity change, negative = inhibition” value was inactive: -25.1%.
For `CCOC(=O)N1CCN(S(=O)(=O)c2ccc(C(=O)N(CCCN(C)C)c3nc4ccc(CC)cc4s3)cc2)CC1`, the Potency was inconclusive: 28.2 µM [inhibitor, single point].
In the case of `CCOc1ccc(/C=N/NC(=S)Nc2c(C)cccc2C)cc1`, the Potency is reported as inconclusive: 6.31 µM [inhibitor, partial curve, poor fit].
In the case of `CCc1ccc(NC(=O)C(=O)NCCc2sc(-c3ccc(OC)c(OC)c3)nc2C)cc1`, the “activity change, negative = inhibition” value is reported as inactive: 8.89%.
With `CCCc1ccc(-c2c(C)sc(N)c2C#N)cc1` the Potency was inconclusive: 12.6 µM [inhibitor, partial curve, poor fit].
With `C/C(=N\NC(=S)NCc1ccccc1)C1CCCCC1` the Potency was inconclusive: 10 µM [inhibitor, partial curve].
For `CC1CC(=O)Nc2ccccc2N1S(=O)(=O)c1ccc(F)cc1F` (centres undefined), the Potency was inconclusive: 28.2 µM [inhibitor, single point].
With `CCN(CC)c1ccc(/C=N/O)cc1` the Potency was inconclusive: 28.2 µM [inhibitor, single point].
With `CC1CCN(S(=O)(=O)c2ccc3c(c2)N(CC(=O)NCCCN2CCCC(C)C2)C(=O)CO3)CC1` (centres undefined) the “activity change, negative = inhibition” value was inactive: -31.4%.
In the case of `CCCCCC/C(=N/O)c1ccccn1`, the Potency is reported as inconclusive: 10 µM [inhibitor, partial curve, poor fit].
For `S=C(Nc1ccccc1)N1CCC(Cc2ccccc2)CC1`, the Potency was inconclusive: 11.2 µM [inhibitor, single point].
In the case of `Cc1ccc(-n2cc3c(-c4cccc(Br)c4)nnc(C)c3n2)cc1`, the Potency is reported as inconclusive: 10 µM [inhibitor, single point].
With `COc1cc(NC(=O)c2cccc(Cl)c2)c(OC)cc1NC(=O)CN1CCOCC1` the Potency was inconclusive: 10 µM [inhibitor, partial curve, poor fit].
In the case of `CN(C)c1ccc(CN2CCc3nc(N4CCN(c5ccccn5)CC4)ncc3C2)cc1`, the “activity change, negative = inhibition” value is reported as inactive: 1.47%.
For `CCC(C)NS(=O)(=O)c1ccc(N2CCCCS2(=O)=O)cc1` (centres undefined), the “activity change, negative = inhibition” value was inactive: -1.52%.
In the case of `Cc1nn2c(N3CCN(C)CC3)cc(C(C)(C)C)nc2c1-c1ccccc1`, the Potency is reported as inconclusive: 28.2 µM [inhibitor, single point].
For `CCC(C)N(C(=O)CSc1nc(-c2cccs2)nc2ccccc12)C1CCS(=O)(=O)C1` (centres undefined), the Potency was inconclusive: 11.2 µM [inhibitor, partial curve, poor fit].
In the case of `CC1CCN(c2ccc(C(=O)N3CCOCC3)cc2[N+](=O)[O-])CC1`, the “activity change, negative = inhibition” value is reported as inactive: -21.7%.
For `CCCCOc1ncnc2c1[nH]c1ccc(F)cc12`, the Potency was inconclusive: 11.2 µM [inhibitor, single point].
With `Nc1c(C=C2C=CC(=O)C=C2)c(=O)nc2sc(CC(=O)N3CCOCC3)nn12` the “activity change, negative = inhibition” value was inactive: -12%.
For `CCCNC(=S)NCCN1CCCCC1`, the “activity change, negative = inhibition” value was inactive: -7.94%.
For `CCc1cccc(CC)c1NC(=S)NCc1ccc2[nH]c(C)cc2c1`, the Potency was inconclusive: 11.2 µM [inhibitor, single point].
In the case of `Cc1ccc(C(=O)C[n+]2ccc(-c3nnc4n3CCC4)cc2)cc1`, the “activity change, negative = inhibition” value is reported as inactive: 18.8%.
For `Cn1cnc2c1c(=O)n(Cc1cccc(Br)c1)c(=O)n2C`, the “activity change, negative = inhibition” value was inactive: 2.55%.
For `CCN(CC)CC(O)Cn1c2ccccc2c2ccccc21` (centres undefined), the “activity change, negative = inhibition” value was inactive: 15.8%.
In the case of `Cn1cccc1C(=O)NC(=O)COC(=O)CC12CC3CC(CC(C3)C1)C2`, the “activity change, negative = inhibition” value is reported as inactive: 6.53%.
For `Nc1nc(-c2ccccn2)nc(N)c1Cc1ccccc1F`, the Potency was inconclusive: 7.08 µM [inhibitor, partial curve].
For `Cc1[nH]nc2c1C(Cc1ccccc1)C(C#N)=C(N)O2` (centres undefined), the “activity change, negative = inhibition” value was inactive: 5.54%.
In the case of `Cc1ccc2nsnc2c1S(=O)(=O)NCc1cccnc1`, the Potency is reported as inconclusive: 12.6 µM [inhibitor, single point].
